Laboratory results reported in patent US20200283478A1 (Genentech, published 2020).

Key:
[1] = molecular target: T1, LDLR ectodomain (R & D Systems) (UniProt P01130 22-788, limits assumed); assay: biolayer interferometry, LDLR ectodomain immobilized
T1 construct: extracellular domain

[2] = molecular target: T1, LDLR ectodomain (R & D Systems); assay: as above; remark: listed apart in the source
T1 sequence (P01130 22-788 limits assumed): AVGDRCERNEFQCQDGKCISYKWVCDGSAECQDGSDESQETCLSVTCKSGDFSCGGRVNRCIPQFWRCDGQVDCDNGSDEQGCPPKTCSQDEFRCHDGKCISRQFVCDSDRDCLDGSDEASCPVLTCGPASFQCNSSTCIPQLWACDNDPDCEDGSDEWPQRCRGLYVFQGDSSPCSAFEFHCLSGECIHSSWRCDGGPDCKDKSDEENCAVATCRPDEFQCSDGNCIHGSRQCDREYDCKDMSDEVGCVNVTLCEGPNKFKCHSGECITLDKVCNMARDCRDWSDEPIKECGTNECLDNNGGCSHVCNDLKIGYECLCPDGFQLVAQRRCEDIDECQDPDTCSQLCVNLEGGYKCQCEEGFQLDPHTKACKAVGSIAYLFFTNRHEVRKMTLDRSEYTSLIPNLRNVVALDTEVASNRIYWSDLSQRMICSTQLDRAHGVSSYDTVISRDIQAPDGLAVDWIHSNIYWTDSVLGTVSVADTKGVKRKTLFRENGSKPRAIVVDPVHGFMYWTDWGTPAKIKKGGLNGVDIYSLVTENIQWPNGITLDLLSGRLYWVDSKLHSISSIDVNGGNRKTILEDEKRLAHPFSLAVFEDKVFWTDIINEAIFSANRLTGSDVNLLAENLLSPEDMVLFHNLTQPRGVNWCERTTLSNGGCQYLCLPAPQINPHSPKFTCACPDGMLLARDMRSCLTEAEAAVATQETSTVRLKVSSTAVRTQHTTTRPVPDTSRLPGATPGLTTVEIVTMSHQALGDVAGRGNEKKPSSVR

Binder	Kd [1]	koff [2]	kon [2]
PCSK[…]A:R215A:R218A (enzyme, expressed in CHO cells; also called PCSK9-AAA; K9-AAA) not shown	0.214 µM	0.00543 s⁻¹	25400 M⁻¹ s⁻¹
PCSK[…]A:R218A (enzyme, also called PCSK9-AA; K9-AA) not shown	0.26 µM	0.00931 s⁻¹	35900 M⁻¹ s⁻¹
